# Source: PMC4336329 (PLoS ONE, 2015)
# The campaign covered roughly 310,000 compounds. About 14,000 (4.5%) showed an effect of 50% or more. The effect is printed as a negative number. Some of the results follow.
# Target: human ether-à-go-go-related gene (hERG) potassium channel (human, UniProt Q12809)
# Experiment: primary screen, population patch clamp on CHO cells stably expressing hERG
# 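Also: peak tail current of the secondary pulse compared with the same well before compound.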
# Sequence of human ether-à-go-go-related gene (hERG) potassium channel (Q12809 whole entry, looked up): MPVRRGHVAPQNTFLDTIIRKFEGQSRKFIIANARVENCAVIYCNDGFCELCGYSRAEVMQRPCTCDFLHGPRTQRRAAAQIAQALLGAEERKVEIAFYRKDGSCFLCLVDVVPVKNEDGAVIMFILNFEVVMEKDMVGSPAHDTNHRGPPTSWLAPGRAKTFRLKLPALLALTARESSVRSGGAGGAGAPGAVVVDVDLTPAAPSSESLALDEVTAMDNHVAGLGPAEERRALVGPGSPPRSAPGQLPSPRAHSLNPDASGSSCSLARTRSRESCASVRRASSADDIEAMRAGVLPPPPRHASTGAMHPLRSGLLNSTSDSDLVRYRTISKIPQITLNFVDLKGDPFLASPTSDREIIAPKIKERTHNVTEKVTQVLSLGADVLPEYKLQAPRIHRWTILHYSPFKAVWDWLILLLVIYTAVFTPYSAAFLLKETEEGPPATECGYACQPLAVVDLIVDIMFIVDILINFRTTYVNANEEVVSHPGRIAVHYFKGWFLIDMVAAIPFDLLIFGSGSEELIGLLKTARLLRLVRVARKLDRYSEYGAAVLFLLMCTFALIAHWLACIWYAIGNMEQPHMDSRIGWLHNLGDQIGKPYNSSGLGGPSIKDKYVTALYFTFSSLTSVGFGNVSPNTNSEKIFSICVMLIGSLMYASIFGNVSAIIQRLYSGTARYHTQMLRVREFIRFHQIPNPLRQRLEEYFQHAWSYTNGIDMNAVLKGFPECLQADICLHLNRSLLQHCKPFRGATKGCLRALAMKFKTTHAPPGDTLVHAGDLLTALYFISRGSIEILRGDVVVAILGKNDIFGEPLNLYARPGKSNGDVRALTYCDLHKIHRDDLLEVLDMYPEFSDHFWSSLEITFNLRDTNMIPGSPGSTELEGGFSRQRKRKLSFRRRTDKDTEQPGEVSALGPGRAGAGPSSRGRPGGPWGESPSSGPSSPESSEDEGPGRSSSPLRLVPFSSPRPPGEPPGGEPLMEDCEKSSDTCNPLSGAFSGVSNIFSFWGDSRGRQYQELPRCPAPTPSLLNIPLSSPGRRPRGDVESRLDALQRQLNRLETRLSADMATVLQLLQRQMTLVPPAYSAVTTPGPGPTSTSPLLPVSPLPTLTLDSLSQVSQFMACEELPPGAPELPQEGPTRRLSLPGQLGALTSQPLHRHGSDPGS
row,Compound,"hERG current change (%, negative = inhibition) at 10uM"
1,CCCCC(=O)Nc1ccc(NC(=S)NC(=O)CCCCl)cc1OC,8.67%
2,O=C(NC(=S)NCc1ccccc1)c1ccc(Br)o1,-7.42%
3,Cc1nn(Cc2c(F)c(F)c(F)c(F)c2F)c(C)c1NC(=O)c1cccc(COc2ccc(Cl)cc2)c1,2.49%
4,CC(Sc1ccccc1)C(=O)NN=C1CCCC1 (stereo not drawn),11.7%
5,COc1ccc(C2C(Oc3ccccc3C)C(=O)N2Cc2ccc(F)cc2)cc1OC (stereo not drawn),-12.5%
6,Cl.N[C@@H](Cc1ccccc1)c1nnc(SC/C=C/c2ccccc2)o1,-13.1%
7,CC(C)(C)c1ccc(/C=N/NC(=O)CN2CCS(=O)(=O)CC2)cc1,-9.12%
8,O=C(OCn1nnc2ccccc2c1=O)c1cc(-c2ccccc2)nc2ccccc12,6.74%
9,OCCC1CN(Cc2ccc(Oc3ncccn3)cc2)CCN1C1CCCC1 (stereo not drawn),8.16%
10,CCC1CCCCN1CCCNC(=O)CS(=O)Cc1nc(-c2ccc(OC)c(OC)c2)oc1C (stereo not drawn),5.21%
11,CN(C)S(=O)(=O)c1cccc(COC(=O)CCNC(=O)c2ccc([N+](=O)[O-])cc2)c1,-55.2%
12,COc1ccc(-c2nnc(NC(=O)Cc3ccccc3)o2)cc1,18.2%
13,CC1=NN(C(=O)Cc2ccc(C)cc2)C(O)(c2cccnc2)C1 (stereo not drawn),10.1%
14,Cc1ccc(/C=C(\C#N)C(=O)NCCN2CCOCC2)cc1,11.5%
15,O=c1cc2c(nn1Cc1ccc(Cl)cc1Cl)-c1ccccc1CC2,5.14%
16,Cc1ccc(-n2c(=O)[nH]cc(C(=O)N3CCc4ccccc43)c2=O)cc1,3.92%
17,CCOc1ccc(NC(=O)c2ccccc2-c2ccccc2C(=O)O)cc1,19%
18,Cc1ccn(CCC(=O)N2c3ccccc3CC2C)n1 (stereo not drawn),22.4%
19,O=C1CC(c2cccc([N+](=O)[O-])c2)c2ccc3ccccc3c2N1 (stereo not drawn),-30.4%
20,COc1ccc2c(c1OC)C(=O)N(c1ccc(O)cc1)C2,13.5%
21,NC(=O)CC(NC(=O)c1ccc(Br)cc1)c1ccc(NCCc2ccc(F)cc2)c([N+](=O)[O-])c1 (stereo not drawn),9.66%
22,O=C(Nc1ccc(N2CCOCC2)nc1)c1ccc(Cl)cc1,-11.5%
23,CCN1CCN(c2oc(-c3ccc(OC)cc3)nc2C#N)CC1,-45.6%
24,Cc1cc(Cl)c2ccc(Cl)cc2n1,1.65%
